Values marked as one replicate rest on one cluster of the flow cell; about a third of the high ones do not repeat.
Tested on: ATP
Assay: switch fluorescence ratio, 500 uM ATP over buffer (Cy3 cluster intensity, sum of 5 cycles each) (fold (ratio)); higher = stronger signal-on switching upon ATP binding; sequences stand for … in TCGTCGGCAGCGTCAGATGTGTATAAGAGACAGTTTTTTTTTTTTTTTTTTTTTTTTT…TC
Details: aptamer strand: ATP DNA aptamer (quencher-CACCTGGGGGAGTATTGCGGAGGAAGG + anchor), 100 nM annealed; ATP concentration: 500 uM; one replicate
Outline: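 Imaging in selection buffer was followed by imaging after 15 min with 500 uM ATP at 22 °C, for Cy3-labelled switching-strand clusters annealed to 100 nM quencher-labelled ATP aptamer on a modified Illumina MiSeq flow-cell. Five of these buffer/ATP cycles ran, separated by NaOH stripping and re-annealing. The fluorescence ratio per cluster is summed target-cycle over summed buffer-cycle Cy3 intensity, averaged per switch-domain sequence; clusters outside 100-1000 RFU were removed.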
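Further: ATP exposure 15 min at 22 °C before imaging.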

Row | Sequence | switch fluorescence ratio
1 | TCTCGGCACC | 3.18
2 | TCTCTACCAA | 1.31
3 | TCTCTAGTGG | 0.981
4 | TCTCTAGTTG | 1.02
5 | TCTCTATCTT | 0.968
6 | TCTCTGGCTT | 1.13
7 | TCTCTTCACT | 1.09
8 | TCTCTTTATA | 0.963
9 | TCTGAAAGAC | 1.51
10 | TCTGAAATAT | 1.04
11 | TCTGAAATGC | 2.67
12 | TCTGAACCAC | 1.19
13 | TCTGAACGAT | 1.05
14 | TCTGACTCTG | 0.971
15 | TCTGAGCCCC | 1
16 | TCTGAGCGGG | 0.98
17 | TCTGAGTAGT | 0.966
18 | TCTGCAGGGA | 1.07
19 | TCTGCCAGAT | 1.01
20 | TCTGCCAGGT | 1.37
21 | TCTGCCCGGT | 1.1
22 | TCTGCCTTGA | 1.15
23 | TCTGCGATTT | 1.09
24 | TCTGCGCGTA | 1.05
25 | TCTGCGTGGC | 0.999
26 | TCTGGATTTG | 0.979

Row | Sequence | switch fluorescence ratio
27 | TCTGGCACGG | 0.986
28 | TCTGGCATTG | 1.02
29 | TCTGGCCGCA | 1.54
30 | TCTGGCTACT | 1.08
31 | TCTGGGAGCA | 1.13
32 | TCTGGGATCA | 0.977
33 | TCTGGGGACG | 0.997
34 | TCTGGGGCCA | 1.01
35 | TCTGGGGGCA | 1.02
36 | TCTGGTAATA | 1.06
37 | TCTGGTTCCC | 1.02
38 | TCTGGTTGAC | 1.01
39 | TCTGTAAGCG | 0.906
40 | TCTGTATTA | 1.03
41 | TCTGTCAATT | 1.69
42 | TCTGTCCAGT | 1.01
43 | TCTGTCCCCT | 1.01
44 | TCTGTCTGAT | 1.02
45 | TCTGTGTAGA | 1.02
46 | TCTTAAAAAC | 1.03
47 | TCTTAACGGA | 1
48 | TCTTAATAAT | 0.99
49 | TCTTAATTTA | 1.01
50 | TCTTACAGGC | 0.977
51 | TCTTACCGAC | 1.44
52 | TCTTAGAGAA | 1.05

Row | Sequence | switch fluorescence ratio
53 | TCTTAGGCTA | 1.03
54 | TCTTAGGGGC | 1.01
55 | TCTTAGTC | 1.04
56 | TCTTAGTCGG | 1
57 | TCTTATAGT | 1.02
58 | TCTTATCGGA | 1.04
59 | TCTTATTCT | 1.01
60 | TCTTCAGACA | 1.01
61 | TCTTCAGCCT | 0.99
62 | TCTTCGAGCA | 1.17
63 | TCTTGACA | 0.955
64 | TCTTGAGTGT | 1.02
65 | TCTTGATGCG | 0.951
66 | TCTTGCTAGT | 1
67 | TCTTGCTCAA | 1.04
68 | TCTTGCTTGG | 0.995
69 | TCTTGGTAAA | 1.02
70 | TCTTGGTGTA | 1.16
71 | TCTTTACCTT | 1.03
72 | TCTTTACGTT | 0.989
73 | TCTTTCGTTT | 1.08
74 | TCTTTGAAAT | 0.968
75 | TGAAAACCG | 1
76 | TGAAAACTAG | 1.01
77 | TGAAAATGGG | 0.983
78 | TGAAAATT | 0.982

Row | Sequence | switch fluorescence ratio
79 | TGAAACGGGA | 1.03
80 | TGAAATAATG | 0.989
81 | TGAAATTGCG | 0.987
82 | TGAACAGAT | 1.01
83 | TGAACGGACG | 1
84 | TGAACGTGA | 1.06
85 | TGAACTCTTT | 0.979
86 | TGAACTTATA | 1.01
87 | TGAAGAAGCG | 0.988
88 | TGAAGCTTTG | 0.986
89 | TGAAGCTTTT | 1.04
90 | TGAAGGCGAA | 1.1
91 | TGAAGGTG | 1.33
92 | TGAAGTCTAT | 0.979
93 | TGAAGTGATT | 1
94 | TGAAGTGGTT | 1.01
95 | TGAATATAT | 0.931
96 | TGAATCCACG | 1.04
97 | TGAATCTTGT | 0.967
98 | TGAATGCACT | 1.06
99 | TGAATGCGAC | 1
100 | TGAATTCGTT | 1.03
101 | TGAATTTCGT | 1.01

— the supplement of paper PMC10126150
